# Results: paper PMC4752459
# Results are given in words; binding and its absence hold for the method and conditions named. Binding seen in cells or lysates may run through a third protein. Some binding calls cover weakened binding; strength is not graded here.
# T1: Shs1-CCG (S. cerevisiae) (UniProt Q07657)
# T1 sequence: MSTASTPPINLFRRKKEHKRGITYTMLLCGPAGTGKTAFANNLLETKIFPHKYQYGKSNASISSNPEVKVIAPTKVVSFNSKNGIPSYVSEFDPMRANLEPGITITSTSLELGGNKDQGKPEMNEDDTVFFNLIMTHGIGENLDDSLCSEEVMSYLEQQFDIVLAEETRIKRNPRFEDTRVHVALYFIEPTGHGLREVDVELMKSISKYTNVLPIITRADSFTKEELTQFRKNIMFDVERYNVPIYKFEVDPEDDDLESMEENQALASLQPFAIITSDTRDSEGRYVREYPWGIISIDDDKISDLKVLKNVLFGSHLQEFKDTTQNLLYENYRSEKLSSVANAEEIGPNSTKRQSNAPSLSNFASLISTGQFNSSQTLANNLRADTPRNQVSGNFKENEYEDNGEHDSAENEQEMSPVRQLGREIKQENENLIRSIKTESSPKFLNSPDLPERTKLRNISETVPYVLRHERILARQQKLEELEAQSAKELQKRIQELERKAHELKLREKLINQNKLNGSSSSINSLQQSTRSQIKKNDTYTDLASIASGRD
# Molecular target: T1, Shs1-CCG (S. cerevisiae)
# Assay: split reporter; steady-state SPLIFF (split-ubiquitin, mCherry-Cub-GFP): diploid cells with Shs1-CCG and a Nub fusion, 100 μM Cu2+, GFP/mCherry ratio at the bud neck; strong > 70%, weak > 30%, below 30% CCG to CC conversion non-interacting
row,Binder,binding
1,"Nub-Ppz2 (protein, UniProt P33329 1-710) MGNSGSKQHTKHNSKKDDHDGDRKKTLDLPPLTKSDTTHSLKSSRSLRSLRSKRSEASLASNVQAQTQPLSRRSSTLGNGNRNHRRSNNAPITPPNNHYLTSHPSSSRRLSSSSRRSSMGNNNNSELPPSMIQMEPKSPILKNSTSMHSTSSFNSYENALTDDDDDRGDDGGESPSMAKVTRINTSSSADRGSKRTPLRRHNSLQPEKGVTGFSSTSSKLRRRSDNTLPASYPLNAEAGGNGSDYFSNRSNSHASSRKSSFGSTGNTAYSTPLHSPALRKMSSRDNDDSGDNVNGRGTSPIPNLNIDKPSPSASSASKREYLSAYPTLAHRDSSSSLSPRGKGQRSSSSSSSSQRIYVSPPSPTGDFVHGSCADGDNGSRTNTMVEMKRKKPVRPVDIDEIIQRLLDAGYAAKRTKNVCLKNSEIIQICHKARELFLAQPALLELSPSVKIVGDVHGQYADLLRLFTKCGFPPMANYLFLGDYVDRGKQSLETILLLLCYKIKYPENFFLLRGNHECANVTRVYGFYDECKRRCNIKIWKTFVDTFNTLPLAAIVTGKIFCVHGGLSPVLNSMDEIRHVSRPTDVPDFGLINDLLWSDPTDSSNEWEDNERGVSFCYNKVAINKFLNKFGFDLVCRAHMVVEDGYEFFNDRSLVTVFSAPNYCGEFDNWGAVMTVSEGLLCSFELLDPLDSTALKQVMKKGRQERKLANR",no binding
2,"Nub-Bni4 (protein, UniProt P53858 1-892) MSDSISDSKSSELLNSTFYSSTSINTLDHARTFRNSLILKEISDQSLNSSIKPCESVLDRDVESSVLQRSFGESNARDSEVQTVNMTTSPSLSALADILNERSKYADQKTRKAQNIESSIIEEEEEAEEQNNSINYHEDITGSRLSVREEANENLAMTSPNLIDIDGSNSIQVAPLSLPSFEEPDFLSTPRVKPDSQGPRSKVSTRRTILERDNNLPVKREENTIINSETESTTHSAPFLKEDPKPSPPSSKLYNPKVRLNKAEARKYTDSSAQRTTSAGSVLEDTSMHKKKKSIFSFLKKKEPKPVIGNNSVTNEKNKMSSSSTFSMNIQTSLKTPEKLKKKSHSSSSIFNSFLKGKIETSDSPRKEPMRQKKRTPKSKDKKQDTEQIIDAASVLSTESPLLRKNHDDTPVKIDHVTRSIDQRKPTPLNMDLILGGDKQINTPLQEHVREDDDAKNDLQLPTKDNFLSLDYEAPSPAFSKHDTGEVLFPKFLDNHEVDSIVSLERTRSTKSNKRSSMNSQRRSLTDTLSIKAQSEGMFITEASSVVLSTPDLTKSPASSILKNGRFEYSDNFSREHSYEGTTNEDFLDIKDDSGPLKKDDIFLESIEQKFDQLVMASDEEKTEVERDVPKPREEPLKKDSERQSVFADDDNELISDIMEFASFINFGDDDLNLDLDLGDTTASYATETPEPVGNDEVNRSGTFDTRNNKEDSYKERETQSYSAAGATTYGDERQGQLHTFEQDGSEINDNEFENEDFNKHIEQPIEVTPRNNAYLPEFEPNRPVSMSFKGLKAPRMNTSFIDSMTPDSPVKSDLTSLGEVYVNSNNDQGVRFSSQIILYDTYGEFEYDRHPEISTCNQLTPQLAQMIKLELNELKSAMEVHDDSRCYTHFY",no binding
3,"Nub-Coy1 (protein, UniProt P34237 1-679) MDTSVYSHALDIWAKADLTNLQRELDADVIEIKDKETLSLNSRKSLATETKKFKKLEPEEKLNNVNKIIKQYQREIDNLTQRSKFSEKVLFDVYEKLSEAPDPQPLLQSSLEKLGKIDDSKELKEKISYLEDKLAKYADYETLKSRLLDLEQSSAKTLAKRLTAKTQEINSTWEEKGRNWKEREADLLKQLTNVQEQNKALEAKISKNIDIEGNGNEDGDQENNQKEVSTRIAEYNLVTQELETTQARIYQLEKRNEELSGALAKATSEAEKETELHAKELKLNQLESENALLSASYEQERKSTSHAINELKEQLNSVVAESESYKSELETVRRKLNNYSDYNKIKEELSALKKIEFGVNEDDSDNDIRSEDKNDNTFESSLLSANKKLQATLAEYRSKSTAQEEERNELKKSVDQLKQQIATLKEANEKLETDLEKVENVSPHFNETASMMSGVTRQMNNRTSHKMSPTSSIIGIPEDGELSGNQSTILPIVTKQRDRFRSRNMDLEKQLRQGNSEKGKLKLEISKLKGDNTKLYERIRYLQSYNNNNAPVNQSTERIDVESQYSRVYDESLHPMANFRQNELNHYKNKKLSALEKLFSSFAKVILQNKMTRMVFLFYCIGLHGLVFMMSMYVINISGYMTPEVGIVQSAKSSSNLNGGLGGAEKVAAGVGSVHGINR",no binding
4,"Nub-Mrc1 (protein, UniProt P25588 1-1096) MDDALHALSSLTAKKRTTTYKKVAVPILDENDNTNGNGPNDIDNPPELTGNGFLFANATLNRVKNRLEGKKAPEQNHNNGKDRSENSLPTQLISNLYDGGEELEKSEVKDNSYSEKNVSSSFTQTQRIPVSIQQDKVFNVPIHSVNDGKPTQLIKEDGLVNETSQALKTPLTTGRPGATQRIDSSGATSQTQPIKSIEPQSQIITTSSNHSNALSPKIPIIPTELIGTSPLFQSIQNRGPDTQMDVPPQTAHDEDKTQAIGIPQATHQEQKTQIDTVAQTLQDEVPHTLKIREIQSELASEDSKREKARNVEYKKPQKPIPTKKFFSKESFLADFDDSSSNEDDDIKLENAHPKPVQNDDELHENKSVELNLTDETRINEKRVPLLSSYANNLKREIDSSKCITLDLDSDSDEYGDDDMDSIKLSKDESVLPISQLSKATILNLKARLSKQNQKLSQRPNKSKDPKVDHNVLLNTLRKASRKQILDHQKEVIETKGLKLEDMAKEKEIVENLLEQEILRNKRIRQKEKRREKLEENDFQLNAHDSGSDSGSESSGFALSGNEIADYESSGSENDNRRESDSEKEDDEIILKQKKSHHVKHIINESDSDTEVEAKPKEKADESLPKRIAINLGHYGDNIGEDTDKFQETNVLDTQNIEEVMAERNTIENEVKDDVYVNEEADEAIRRQLIDKEKLQLKQKEKEHEAKIKELKKRGVTNFFEMEAEESEDEWHGIGGADGEGSDDYDSDLEKMIDDYSKNNFNPHEIREMLAAENKEMDIKMINKILYDIKNGGFRNKRAKNSLELELSDDDEDDVLQQYRLKRRELMRKRRLEIGDDAKLVKNPKSSAFFESMVEDIIEYKNPFGAEEEYNLDITSTATDLDTQDNSINVGDNTGNNEQKPVDQKNKKVIISEDFVQKSLSFLKSNNYEDFETDKELSRIQHGNDEAIEDLYTLKQNSSIKSFTNSQTDSTTSKTVNTIIDLEKRPEDEDEVENGDTSLVGVFKHPSIIKSFASRTDINDKFKEGNKTVKILKSYKTVGSSKASITYMGKTRKLIAPKRKTEGSHRYHHDHHNKKMKMKTKTKSNKLFESGQDSFDN",binds weakly
5,"Nub-Nap1 (protein, UniProt P25293 1-417) MSDPIRTKPKSSMQIDNAPTPHNTPASVLNPSYLKNGNPVRAQAQEQDDKIGTINEEDILANQPLLLQSIQDRLGSLVGQDSGYVGGLPKNVKEKLLSLKTLQSELFEVEKEFQVEMFELENKFLQKYKPIWEQRSRIISGQEQPKPEQIAKGQEIVESLNETELLVDEEEKAQNDSEEEQVKGIPSFWLTALENLPIVCDTITDRDAEVLEYLQDIGLEYLTDGRPGFKLLFRFDSSANPFFTNDILCKTYFYQKELGYSGDFIYDHAEGCEISWKDNAHNVTVDLEMRKQRNKTTKQVRTIEKITPIESFFNFFDPPKIQNEDQDEELEEDLEERLALDYSIGEQLKDKLIPRAVDWFTGAALEFEFEEDEEEADEDEDEEEDDDHGLEDDDGESAEEQDDFAGRPEQAPECKQS",no binding

# The remaining lines, values ahead:
row,binding,Binder
1,binds weakly,"Nub-Ste20 (protein, UniProt Q03497 1-939) MSNDPSAVSELPDKDSLDNGISNDNERAMGGNGDGGDGLRLPRTTGTLNVNALQKGTNAAHEAGGYKSMDPAKNAETTNDDDNNVVSLDDPIQFTRVSSSSVISGMSSSMSPHSNIDETKSLEAVTPNINTSNITPDHSADNTFSTINASESDHQFNDTLLSKLSLTDSTETIENNATVKHQQPVASSTVNSNKSSTDIRRATPVSTPVISKPSMTTTPRQINSASHSLSNPKHKQHKPKVKPSKPEAKSKPVSVKKSFPSKNPLKNSSPPKKQTEKSYYSSSSKKRKSGSNSGTLRMKDVFTSFVQNIKRNSQDDKRASSSSNNSSSSSITTALRISTPYNAKHIHHVGVDSKTGEYTGLPEEWEKLLTSSGISKREQQQNMQAVMDIVKFYQDVTETNGEDKMFKTFNTTTGLPGSPQVSTPPANSFNKFPPSTSDSHNYGSRTGTPMSNHVMSPTLNTDSSSANGKFIPSRPAPKPPSSASASAPIIKSPVMNSAANVSPLKQTHAPTTPNRTSPNRSSISRNATLKKEEQPLPPIPPTKSKTSPIISTAHTPQQVAQSPKAPAQETVTTPTSKPAQARSLSKELNEKKREERERRKKQLYAKLNEICSDGDPSTKYANLVKIGQGASGGVYTAYEIGTNVSVAIKQMNLEKQPKKELIINEILVMKGSKHPNIVNFIDSYVLKGDLWVIMEYMEGGSLTDVVTHCILTEGQIGAVCRETLSGLEFLHSKGVLHRDIKSDNILLSMEGDIKLTDFGFCAQINELNLKRTTMVGTPYWMAPEVVSRKEYGPKVDIWSLGIMIIEMIEGEPPYLNETPLRALYLIATNGTPKLKEPENLSSSLKKFLDWCLCVEPEDRASATELLHDEYITEIAEANSSLAPLVKLARLKKVAENMDADEDNDDDNDNEHINKTNNCDDNNDSKETVNLDVTEDDKQK"
2,no binding,"Nub-Prk1 (protein, UniProt P40494 1-810) MNTPQISLYEPGTILTVGSHHAKIIKYLTSGGFAQVYTAEISPPDPYSNANIACLKRVIVPHKQGLNTLRAEVDAMKLLRNNKHVVSYIDSHAARSVNGIAYEVFVLMEFCERGGLIDFMNTRLQNRLQESEILEIMSQTVQGITAMHALQPPLIHRDIKIENVLISHDGLYKVCDFGSVSGVIRPPRNTQEFNYVQHDILTNTTAQYRSPEMIDLYRGLPIDEKSDIWALGVFLYKICYYTTPFEKSGEAGILHARYQYPSFPQYSDRLKNLIRLMLMEAPSQRPNICQVLEEVSRLQNKPCPIRNFYLLRAMNQNANTQLAGEPSSTTYVPTQKFIPVQSLQSINQPPNMMPVTHVSTTPNLGTFPISINDNNKTEVTAHAGLQVGSHSNLTSPLMKTKSVPLSDEFASLYYKELHPFQKSQTFKSVESFQSPQRKSMPPLSLTPVNNDIFDRVSAINRPNNYVDSETQTIDNMAVPNLKLSPTITSKSLSSTKEIAAPDNINGSKIVRSLSSKLKKVITGESRGNSPIKSRQNTGDSIRSAFGKLRHGFTGNSVNNSRSASFDNNNVNGNGNNTNRRLVSSSTSSFPKFNSDTKRKEESDKNQRLEKRRSMPPSILSDFDQHERNNSRTGSRDYYRSHSPVKKTQASAKTTSKPTLIPDNGNVNINQEKKESIQRRVHNLLKSSDDPVTYKSASGYGKYTDIGTETSNRHSSVRITPITEEKFKKTLKDGVLDIKTKSNGKDKSRPPRPPPKPLHLRTEIQKIRNFSRLQSKKLPIERISSEATETIVDVNVDDLEADFRKRFPSKV"
